The values below come from paper PMC4858940.

Chains of the proteins cited; added tags and fusions are not shown.
UniProt P0AEZ3: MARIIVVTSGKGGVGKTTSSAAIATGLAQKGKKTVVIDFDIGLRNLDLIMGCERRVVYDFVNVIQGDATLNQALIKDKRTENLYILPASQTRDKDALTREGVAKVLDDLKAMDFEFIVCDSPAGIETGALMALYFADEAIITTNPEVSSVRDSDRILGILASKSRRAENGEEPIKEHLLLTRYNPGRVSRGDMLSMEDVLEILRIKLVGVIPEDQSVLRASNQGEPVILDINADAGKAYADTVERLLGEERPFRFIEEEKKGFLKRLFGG
UniProt P0ABD3: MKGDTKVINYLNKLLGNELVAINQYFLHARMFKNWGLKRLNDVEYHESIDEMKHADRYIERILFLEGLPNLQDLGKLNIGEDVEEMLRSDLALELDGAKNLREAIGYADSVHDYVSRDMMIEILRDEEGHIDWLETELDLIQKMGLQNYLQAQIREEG

These are yes or no findings as the source states them, for the method shown. For some of these results: Binding seen in cells or lysates may run through a third protein. Some results given as binding are weak or reduced against the parent protein; the word gives no strength. Where a sequence is shown, tags or fusion partners need not be part of it.

In assay [1] the target is His6-MinD (E. coli) (UniProt P0AEZ3). The assay can be described thus: pull-down; His-tagged MinC, MinD or MinE immobilised on Ni Sepharose resin; mixed with clear lysate holding the GFP-tagged POI, 4 °C, 60 min; 25 mM Tris-Cl pH 8.0, 150 mM KCl, washes with 5 and 30 mM imidazole, elution with 300 mM imidazole; Western blot with anti-GFP and anti-His6; only the target purified. (In general: Immunoblotting shows a protein as a band on a membrane.)

For assay [2], the target named is MinD (bacterial two-hybrid fusion) (E. coli) (UniProt P0AEZ3). The experiment in a line: two-hybrid; bacterial two-hybrid (CyaA T25 and T18 fusions) in E. coli DHP1; cultures spotted on LB plates with 0.5 mM IPTG and X-Gal, 30 °C, colour developed for 18 h; every protein cloned in pT18 and in pT25 for cross-examination.
Assay [3] deals with T1, MalE-His6-MinC (E. coli) (UniProt P18196).
T1 sequence: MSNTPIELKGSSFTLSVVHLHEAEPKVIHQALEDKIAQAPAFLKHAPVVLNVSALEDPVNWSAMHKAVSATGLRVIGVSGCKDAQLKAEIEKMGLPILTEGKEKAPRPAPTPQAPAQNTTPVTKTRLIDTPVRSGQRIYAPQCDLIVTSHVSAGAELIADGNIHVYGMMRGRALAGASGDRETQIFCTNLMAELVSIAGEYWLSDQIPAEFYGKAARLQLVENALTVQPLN
The experiment in a line: pull-down; His-tagged MinC, MinD or MinE immobilised on Ni Sepharose resin; mixed with clear lysate holding the GFP-tagged POI, 4 °C, 60 min; 25 mM Tris-Cl pH 8.0, 150 mM KCl, washes with 5 and 30 mM imidazole, elution with 300 mM imidazole; Western blot with anti-GFP and anti-His6; only the target purified.

Assay [4] deals with MinE-His6 (E. coli) (UniProt P0A734). Described as above.

As for “GFP-tagged bacterioferritin (from UniProt P0ABD3 1-158)”, the binding result in assay [1] is listed as “binds”.
As for “Bacterioferritin (bacterial two-hybrid fusion) (from UniProt P0ABD3 1-158)”, the binding entry in assay [2] is on record as “binds”.

B1: GFP-tagged 6-phosphofructokinase isozyme 1 (enzyme, UniProt P0A796 1-320)
chain: MIKKIGVLTSGGDAPGMNAAIRGVVRSALTEGLEVMGIYDGYLGLYEDRMVQLDRYSVSDMINRGGTFLGSARFPEFRDENIRAVAIENLKKRGIDALVVIGGDGSYMGAMRLTEMGFPCIGLPGTIDNDIKGTDYTIGFFTALSTVVEAIDRLRDTSSSHQRISVVEVMGRYCGDLTLAAAIAGGCEFVVVPEVEFSREDLVNEIKAGIAKGKKHAIVAITEHMCDVDELAHFIEKETGRETRATVLGHIQRGGSPVPYDRILASRMGAYAIDLLLAGYGGRCVGIQNEQLVHHDIIDAIENMKRPFKGDWLDCAKKLY
In the case of B1, the binding result in assay [1], in assay [3] and in assay [4] was “binds” in each case.

B2: GFP-tagged protein lysine acetyltransferase (enzyme, UniProt P76594 1-886)
chain: MSQRGLEALLRPKSIAVIGASMKPNRAGYLMMRNLLAGGFNGPVLPVTPAWKAVLGVLAWPDIASLPFTPDLAVLCTNASRNLALLEELGEKGCKTCIILSAPASQHEDLRACALRHNMRLLGPNSLGLLAPWQGLNASFSPVPIKRGKLAFISQSAAVSNTILDWAQQRKMGFSYFIALGDSLDIDVDELLDYLARDSKTSAILLYLEQLSDARRFVSAARSASRNKPILVIKSGRSPAAQRLLNTTAGMDPAWDAAIQRAGLLRVQDTHELFSAVETLSHMRPLRGDRLMIISNGAAPAALALDALWSRNGKLATLSEETCQKLRDALPEHVAISNPLDLRDDASSEHYIKTLDILLHSQDFDALMVIHSPSAAAPATESAQVLIEAVKHHPRSKYVSLLTNWCGEHSSQEARRLFSEAGLPTYRTPEGTITAFMHMVEYRRNQKQLRETPALPSNLTSNTAEAHLLLQQAIAEGATSLDTHEVQPILQAYGMNTLPTWIASDSTEAVHIAEQIGYPVALKLRSPDIPHKSEVQGVMLYLRTANEVQQAANAIFDRVKMAWPQARVHGLLVQSMANRAGAQELRVVVEHDPVFGPLIMLGEGGVEWRPEDQAVVALPPLNMNLARYLVIQGIKSKKIRARSALRPLDVAGLSQLLVQVSNLIVDCPEIQRLDIHPLLASGSEFTALDVTLDISPFEGDNESRLAVRPYPHQLEEWVELKNGERCLFRPILPEDEPQLQQFISRVTKEDLYYRYFSEINEFTHEDLANMTQIDYDREMAFVAVRRIDQTEEILGVTRAISDPDNIDAEFAVLVRSDLKGLGLGRRLMEKLITYTRDHGLQRLNGITMPNNRGMVALARKLGFNVDIQLEEGIVGLTLNLAQREES
As for B2, the binding entry in assay [1], in assay [3] and in assay [4] was “binds” each time.

B3: GFP-tagged universal stress protein E (protein, UniProt P0AAC0 1-316)
chain: MAMYQNMLVVIDPNQDDQPALRRAVYLHQRIGGKIKAFLPIYDFSYEMTTLLSPDERTAMRQGVISQRTAWIHEQAKYYLNAGVPIEIKVVWHNRPFEAIIQEVISGGHDLVLKMAHQHDRLEAVIFTPTDWHLLRKCPSPVWMVKDQPWPEGGKALVAVNLASEEPYHNALNEKLVKETIELAEQVNHTEVHLVGAYPVTPINIAIELPEFDPSVYNDAIRGQHLLAMKALRQKFGINENMTHVEKGLPEEVIPDLAEHLQAGIVVLGTVGRTGISAAFLGNTAEQVIDHLRCDLLVIKPDQYQTPVELDDEEDD
In the case of B3, the binding entry in assay [1] and in assay [4] was “binds” in each case.

B4: GFP-tagged putative acid-amine ligase (protein, UniProt P0ADT5 1-386)
chain: MERVSITERPDWREKAHEYGFNFHTMYGEPYWCEDAYYKLTLAQVEKLEEVTAELHQMCLKVVEKVIASDELMTKFRIPKHTWSFVRQSWLTHQPSLYSRLDLAWDGTGEPKLLENNADTPTSLYEAAFFQWIWLEDQLNAGNLPEGSDQFNSLQEKLIDRFVELREQYGFQLLHLTCCRDTVEDRGTIQYLQDCATEAEIATEFLYIDDIGLGEKGQFTDLQDQVISNLFKLYPWEFMLREMFSTKLEDAGVRWLEPAWKSIISNKALLPLLWEMFPNHPNLLPAYFAEDDHPQMEKYVVKPIFSREGANVSIIENGKTIEAAEGPYGEEGMIVQQFHPLPKFGDSYMLIGSWLVNDQPAGIGIREDRALITQDMSRFYPHIFVE
Regarding B4, the binding result in assay [3] was “binds”.

B5: GFP-tagged signal recognition particle receptor (protein, UniProt P10121 1-497)
chain: MAKEKKRGFFSWLGFGQKEQTPEKETEVQNEQPVVEEIVQAQEPVKASEQAVEEQPQAHTEAEAETFAADVVEVTEQVAESEKAQPEAEVVAQPEPVVEETPEPVAIEREELPLPEDVNAEAVSPEEWQAEAETVEIVEAAEEEAAKEEITDEELETALAAEAAEEAVMVVPPAEEEQPVEEIAQEQEKPTKEGFFARLKRSLLKTKENLGSGFISLFRGKKIDDDLFEELEEQLLIADVGVETTRKIITNLTEGASRKQLRDAEALYGLLKEEMGEILAKVDEPLNVEGKAPFVILMVGVNGVGKTTTIGKLARQFEQQGKSVMLAAGDTFRAAAVEQLQVWGQRNNIPVIAQHTGADSASVIFDAIQAAKARNIDVLIADTAGRLQNKSHLMEELKKIVRVMKKLDVEAPHEVMLTIDASTGQNAVSQAKLFHEAVGLTGITLTKLDGTAKGGVIFSVADQFGIPIRYIGVGERIEDLRPFKADDFIEALFARED
In the case of B5, the binding result in assay [1], in assay [3] and in assay [4] was “no binding” each time.

B6: GFP-tagged D-amino acid dehydrogenase small subunit (enzyme, UniProt P0A6J5 1-432)
chain: MRVVILGSGVVGVASAWYLNQAGHEVTVIDREPGAALETSAANAGQISPGYAAPWAAPGVPLKAIKWMFQRHAPLAVRLDGTQFQLKWMWQMLRNCDTSHYMENKGRMVRLAEYSRDCLKALRAETNIQYEGRQGGTLQLFRTEQQYENATRDIAVLEDAGVPYQLLESSRLAEVEPALAEVAHKLTGGLQLPNDETGDCQLFTQNLARMAEQAGVKFRFNTPVDQLLCDGEQIYGVKCGDEVIKADAYVMAFGSYSTAMLKGIVDIPVYPLKGYSLTIPIAQEDGAPVSTILDETYKIAITRFDNRIRVGGMAEIVGFNTELLQPRRETLEMVVRDLYPRGGHVEQATFWTGLRPMTPDGTPVVGRTRFKNLWLNTGHGTLGWTMACGSGQLLSDLLSGRTPAIPYEDLSVARYSRGFTPSRPGHLHGAHS
On to B6, for which, in assay [1], the binding entry is recorded as “binds”.

B7: D-amino acid dehydrogenase small subunit (bacterial two-hybrid fusion) (enzyme, UniProt P0A6J5 1-432)
chain: MRVVILGSGVVGVASAWYLNQAGHEVTVIDREPGAALETSAANAGQISPGYAAPWAAPGVPLKAIKWMFQRHAPLAVRLDGTQFQLKWMWQMLRNCDTSHYMENKGRMVRLAEYSRDCLKALRAETNIQYEGRQGGTLQLFRTEQQYENATRDIAVLEDAGVPYQLLESSRLAEVEPALAEVAHKLTGGLQLPNDETGDCQLFTQNLARMAEQAGVKFRFNTPVDQLLCDGEQIYGVKCGDEVIKADAYVMAFGSYSTAMLKGIVDIPVYPLKGYSLTIPIAQEDGAPVSTILDETYKIAITRFDNRIRVGGMAEIVGFNTELLQPRRETLEMVVRDLYPRGGHVEQATFWTGLRPMTPDGTPVVGRTRFKNLWLNTGHGTLGWTMACGSGQLLSDLLSGRTPAIPYEDLSVARYSRGFTPSRPGHLHGAHS
With B7, in assay [2], the binding result was “binds”.

B8: GFP-tagged probable ubiquinone biosynthesis protein (protein, UniProt P0A6A0 1-546)
chain: MTPGEVRRLYFIIRTFLSYGLDELIPKMRITLPLRLWRYSLFWMPNRHKDKLLGERLRLALQELGPVWIKFGQMLSTRRDLFPPHIADQLALLQDKVAPFDGKLAKQQIEAAMGGLPVEAWFDDFEIKPLASASIAQVHTARLKSNGKEVVIKVIRPDILPVIKADLKLIYRLARWVPRLLPDGRRLRPTEVVREYEKTLIDELNLLRESANAIQLRRNFEDSPMLYIPEVYPDYCSEGMMVMERIYGIPVSDVAALEKNGTNMKLLAERGVQVFFTQVFRDSFFHADMHPGNIFVSYEHPENPKYIGIDCGIVGSLNKEDKRYLAENFIAFFNRDYRKVAELHVDSGWVPPDTNVEEFEFAIRTVCEPIFEKPLAEISFGHVLLNLFNTARRFNMEVQPQLVLLQKTLLYVEGVGRQLYPQLDLWKTAKPFLESWIKDQVGIPALVRAFKEKAPFWVEKMPELPELVYDSLRQGKYLQHSVDKIARELQSNHVRQGQSRYFLGIGATLVLSGTFLLVSRPEWGLMPGWLMAGGLIAWFVGWRKTR
In the case of B8, the binding entry in assay [1], in assay [3] and in assay [4] was “no binding” throughout.

B9: GFP-tagged phosphoglycerate kinase (enzyme, UniProt P0A799 1-387)
chain: MSVIKMTDLDLAGKRVFIRADLNVPVKDGKVTSDARIRASLPTIELALKQGAKVMVTSHLGRPTEGEYNEEFSLLPVVNYLKDKLSNPVRLVKDYLDGVDVAEGELVVLENVRFNKGEKKDDETLSKKYAALCDVFVMDAFGTAHRAQASTHGIGKFADVACAGPLLAAELDALGKALKEPARPMVAIVGGSKVSTKLTVLDSLSKIADQLIVGGGIANTFIAAQGHDVGKSLYEADLVDEAKRLLTTCNIPVPSDVRVATEFSETAPATLKSVNDVKADEQILDIGDASAQELAEILKNAKTILWNGPVGVFEFPNFRKGTEIVANAIADSEAFSIAGGGDTLAAIDLFGIADKISYISTGGGAFLEFVEGKVLPAVAMLEERAKK
As for B9, the binding entry in assay [1], in assay [3] and in assay [4] was “no binding” each time.
